Like-named read-outs stand apart in the source and are kept apart here.
B1: ActRIIB(F82I-N83R)-G1Fc (Fc fusion)
chain: GRGEAETRECIYYNANWELERTNQSGLERCEGEQDKRLHCYASWRNSSGTIELVKKGCWLDDIRCYDRQECVATEENPQVYFCCCEGNFCNERFTHLPEAGGPEVTYEPPPTAPTG[gap - human IgG1 Fc and a few adjoining residues]
modifications: Homodimeric Fc fusion; one copy of the chain given
B2: ActRIIB(L79H)-G1Fc (Fc fusion)
chain: GRGEAETRECIYYNANWELERTNQSGLERCEGEQDKRLHCYASWRNSSGTIELVKKGCWHDDFNCYDRQECVATEENPQVYFCCCEGNFCNERFTHLPEAGGPEVTYEPPPTAPTG[gap - human IgG1 Fc and a few adjoining residues]
modifications: Homodimeric Fc fusion; one copy of the chain given
B3: ActRIIB(F82T-N83R)-G1Fc (Fc fusion)
chain: GRGEAETRECIYYNANWELERTNQSGLERCEGEQDKRLHCYASWRNSSGTIELVKKGCWLDDTRCYDRQECVATEENPQVYFCCCEGNFCNERFTHLPEAGGPEVTYEPPPTAPTG[gap - human IgG1 Fc and a few adjoining residues]
modifications: Homodimeric Fc fusion; one copy of the chain given
B4: ActRIIa (Fc fusion)
chain: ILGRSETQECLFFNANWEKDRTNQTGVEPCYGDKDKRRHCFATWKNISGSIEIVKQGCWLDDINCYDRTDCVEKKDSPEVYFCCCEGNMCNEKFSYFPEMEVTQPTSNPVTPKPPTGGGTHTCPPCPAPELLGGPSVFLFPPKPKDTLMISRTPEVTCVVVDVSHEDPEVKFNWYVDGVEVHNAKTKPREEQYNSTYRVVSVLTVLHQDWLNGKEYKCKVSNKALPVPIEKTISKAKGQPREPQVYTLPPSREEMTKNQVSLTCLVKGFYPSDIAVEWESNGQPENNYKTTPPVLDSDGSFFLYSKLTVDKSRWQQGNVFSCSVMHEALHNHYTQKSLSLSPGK
modifications: Disulfide-bonded homodimer of this chain; glycosylated CHO product
B5: ActRIIB(L79H-F82K)-G1Fc (Fc fusion)
chain: GRGEAETRECIYYNANWELERTNQSGLERCEGEQDKRLHCYASWRNSSGTIELVKKGCWHDDKNCYDRQECVATEENPQVYFCCCEGNFCNERFTHLPEAGGPEVTYEPPPTAPTG[gap - human IgG1 Fc and a few adjoining residues]
B6: ActRIIB(L79H-F82I)-G1Fc (Fc fusion)
chain: GRGEAETRECIYYNANWELERTNQSGLERCEGEQDKRLHCYASWRNSSGTIELVKKGCWHDDINCYDRQECVATEENPQVYFCCCEGNFCNERFTHLPEAGGPEVTYEPPPTAPTG[gap - human IgG1 Fc and a few adjoining residues]
modifications: Homodimeric Fc fusion; one copy of the chain given
B7: ActRIIB(F82K-N83R)-G1Fc (Fc fusion)
chain: GRGEAETRECIYYNANWELERTNQSGLERCEGEQDKRLHCYASWRNSSGTIELVKKGCWLDDKRCYDRQECVATEENPQVYFCCCEGNFCNERFTHLPEAGGPEVTYEPPPTAPTG[gap - human IgG1 Fc and a few adjoining residues]
modifications: Homodimeric Fc fusion; one copy of the chain given
B8: ActRIIA-hFc (Fc fusion)
chain: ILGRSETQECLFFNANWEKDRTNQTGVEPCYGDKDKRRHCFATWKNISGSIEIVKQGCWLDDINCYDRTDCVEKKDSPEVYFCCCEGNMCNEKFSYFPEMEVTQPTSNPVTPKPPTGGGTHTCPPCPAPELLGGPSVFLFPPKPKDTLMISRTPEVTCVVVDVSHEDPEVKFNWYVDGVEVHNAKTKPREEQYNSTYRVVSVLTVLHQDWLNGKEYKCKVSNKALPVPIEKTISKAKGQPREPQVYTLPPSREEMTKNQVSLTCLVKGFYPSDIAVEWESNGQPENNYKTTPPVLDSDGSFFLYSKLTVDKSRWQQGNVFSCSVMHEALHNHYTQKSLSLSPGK
modifications: Disulfide-bonded homodimer of this chain; glycosylated CHO product

How the values were obtained:
[1] = molecular target: T1, activin B (UniProt P09529 293-407); experiment: SPR; 37 C
T1 chain: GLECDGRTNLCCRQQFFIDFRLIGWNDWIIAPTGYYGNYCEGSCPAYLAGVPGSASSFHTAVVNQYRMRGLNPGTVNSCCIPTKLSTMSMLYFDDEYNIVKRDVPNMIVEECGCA

[2] = molecular target: T2, activin A (UniProt P08476 311-426); experiment: SPR; 37 C
T2 chain: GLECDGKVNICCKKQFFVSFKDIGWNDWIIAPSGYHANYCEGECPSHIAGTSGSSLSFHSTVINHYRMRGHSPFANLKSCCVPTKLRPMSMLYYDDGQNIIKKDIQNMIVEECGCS

[3] = molecular target: T3, GDF11 (UniProt O95390 299-407); experiment: SPR; 37 C
T3 chain: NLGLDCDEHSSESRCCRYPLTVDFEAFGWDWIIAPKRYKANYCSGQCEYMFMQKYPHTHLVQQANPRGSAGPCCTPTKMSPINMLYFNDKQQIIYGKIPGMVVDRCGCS

[4] = molecular target: T4, BMP10 (UniProt O95393 317-424); experiment: SPR; 37 C
T4 chain: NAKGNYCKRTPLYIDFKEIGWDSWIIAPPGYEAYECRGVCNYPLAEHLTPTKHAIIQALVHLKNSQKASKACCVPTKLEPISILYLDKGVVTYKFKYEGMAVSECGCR

[5] = molecular target: GDF8 (UniProt O14793 267-375); experiment: SPR; 37 C
Sequence of UniProt O14793 (O14793 267-375): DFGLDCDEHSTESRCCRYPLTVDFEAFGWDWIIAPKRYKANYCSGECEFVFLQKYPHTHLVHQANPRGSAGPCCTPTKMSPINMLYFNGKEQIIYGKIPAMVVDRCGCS

[6] = molecular target: T2, activin A; experiment: SPR; 37 C; transient
[7] = molecular target: T5, BMP9 (UniProt Q9UK05 320-429); experiment: SPR; 37 C; transient
T5 chain: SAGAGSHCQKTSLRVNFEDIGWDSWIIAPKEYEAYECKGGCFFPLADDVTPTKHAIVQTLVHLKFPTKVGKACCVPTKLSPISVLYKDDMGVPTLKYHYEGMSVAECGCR

[8] = molecular target: T2, activin A; experiment: SPR; 37 C
[9] = molecular target: T3, GDF11; experiment: SPR; 37 C
[10] = molecular target: T4, BMP10; experiment: SPR; 37 C
[11] = molecular target: T5, BMP9; experiment: SPR; 37 C
[12] = molecular target: Activin; experiment: Biacore
[13] = molecular target: T3, GDF11; experiment: Biacore

Binder	Kd [1] [nM]	Kd [2] [nM]	Kd [3] [nM]	Kd [4] [nM]	Kd [5] [nM]	Kd [6] [nM]	Kd [7] [nM]	Kd [8] [nM]	Kd [9] [nM]	Kd [10] [nM]	Kd [11] [nM]	Kd [12] [nM]	Kd [13] [nM]
B1	0.0073	0.327	1.41	0.0325	1.18								
B2	0.0169		0.0285	0.124	0.151	9.19	10.3	0.3	0.037	0.12	0.76		
B3	0.0109	0.2	0.864	0.0309	1.46								
B4												0.005	
B5	0.0196		1.65	0.0858	4.02	11.7							
B6	0.0158		0.0861	0.117	0.328	3.38		0.58	0.064	0.11	0.22		
B7	0.0085	0.513		0.0119									
B8													9.96

— patent US20240197902A1 (published 2024)
